± gives the standard deviation of the averaged measurements. This is one part of the list.
system: PfAP2-G AP2 domain (GST-tagged); test: gcPBM binding intensity (ln(normalized median fluorescence intensity)); higher = stronger DNA binding
Summary of the method: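 Plasmodium falciparum DNA-binding domains carrying a GST tag were expressed in E. coli and applied for 1 h, at about 25 μg on average, to an Agilent 4 × 180k array. The array held primer-extended double-stranded 36-bp intergenic genomic probes together with negative controls, and binding took place in 1× PBS with 1% milk, 0.2 mg/ml BSA, 0.5% salmon testes DNA and 0.03% Triton X-100. An Alexa488 anti-GST antibody detected bound protein, and the array was scanned at 488 nm. Binding intensity is taken as the highest Masliner-normalised natural-log median intensity across replicate spots of either probe orientation.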

Sequence | gcPBM binding intensity (ln)
AAAAATATAAAAATAGCACACATATATACATATATA [CACACA_site7901] | 9.83 ± 0.014
TATTCCTAATTGACAACACACACAACAAAAAAGGGA [CACACA_site8350] | 10.4 ± 0.33
CTATAATATGGTATTACACACTGTTATAAGTATGGC [CACACA_site7068] | 10.02 ± 0.014
TATAAATAGAGACACACACACATATAAATAAATATT [CACACA_site7854] | 10.1 ± 0.26
TATATTTCTTCTATAACATGCAGATATATGAAAATA [TGCATGCA_site971] | 9.725 ± 0.064
ATATATTTTTTGAATACACACATATTATCTGTAATA [CACACA_site4826] | 9.92 ± 0.014
ATTATTAACATATATATACACACGAAAAAATTATAT [CACACA_site625] | 10.1 ± 0.11
TAATGAAATATTATGTGTACTTAAAAATTATTAAAT [XGTACX_site5261] | 11.5 ± 1
AGAATTATTTTATGTTTGCACTTTTTTTTTCTATAA [GTGCAC_site9876] | 10.3 ± 0.049
TATATTTAATTATTATGTACTTATAATTTTTGAAAG [XGTACX_site8548] | 11.4 ± 0.96
ACATGAAATGTTTAAAGTACATATATAAATTTTTTT [XGTACX_site4519] | 11.1 ± 0.7
ATATATAGATAATCAAGTACATAACAAGATATAAGA [XGTACX_site2186] | 11 ± 0.64
TACTGATCTTTCTAGGTGCGCTGCTACCATTATCGT [GTGCAC_site9538] | 10.2 ± 0.17
AAATGTGAAGTGAATACACACCTAATAAATATAACA [CACACA_site5727] | 9.98
TATGAAATATCGTGCACACACGAATAATATAAGAAT [CACACA_site4842] | 10.3 ± 0.28
AAAATAAAAAATATAACACACAATAAATATTTATAT [CACACA_site6986] | 9.81 ± 0.028
CTTTCCTATTTGACACGTACGAAATTTTACATAAAA [XGTACX_site6689] | 10.9 ± 0.55
AAATATATATACACATATATATATATATATATATAT [CACACA_negctrl_site1742] | 9.96 ± 0.4
CAAGTATTAATTATGTGTACATATATATATATATAT [XGTACX_site5311] | 11.4 ± 0.82
TATATATATAATATTACACACATATATTTATATTTT [CACACA_site3460] | 9.82 ± 0.14
ATTTATACATGCTAATGTACTTATTTCACCTATATC [XGTACX_site3120] | 11.3 ± 0.96
TATGGTATATACAACACACACACATATGTATAAATA [CACACA_site6562] | 10.4 ± 0.24
TATGTATTTATCCACTTACATTTTTACTTTTCCATT [CACACA_negctrl_site1141] | 10.02 ± 0.049

Sequence | gcPBM binding intensity (ln)
TACACAAGCAGACACACACACATATAGATTTATATA [CACACA_site6715] | 10.1 ± 0.21
GCCATAAAAATATATACACACATAAAAAAAAATTAT [CACACA_site1176] | 10.1 ± 0.31
TATAATGAGGATAATAGTACATATGAATACAAAAAA [XGTACX_site3665] | 11.1 ± 0.57
TTAATATTGTATTTCACACATAATTTAATATACTCA [CACACA_site5678] | 9.79 ± 0.12
AAAAATAAAAATTGCACACTAAAAAATTACGCACGA [CACACA_site3418] | 10.095 ± 0.007
ATTTATATATTTATACGTACTTATATATTGTTACAT [XGTACX_site6254] | 11.2 ± 0.73
TAGAAAATATAAAAATGTACGTAAATAAAATGTGCA [XGTACX_site3459] | 11.4 ± 0.91
TTAAATAAGTAATTATGTACATATAATATTCTTTAT [XGTACX_site5280] | 11.2 ± 0.72
TATAGGAATATATGGTGTACCTATAAATCTGACATA [XGTACX_site8111] | 11.2 ± 0.75
TCTTAAGGAAAAGAGTGTACAGAAATTTTTATTAAC [XGTACX_site6139] | 11.2 ± 0.7
ATCCGAGTGTGAAATACACACATGATAATGTGAATG [CACACA_site919] | 9.94 ± 0.11
AATTATATTACAAACTGTACATATATAATTTGTCCA [XGTACX_site6009] | 11 ± 0.67
ACACATACTAAAATGTTGTGAAATATGATAATGTGA [CACACA_negctrl_site851] | 9.78 ± 0.2
TTATAATAATAGAACTTTATGTAGAAAAAAGGAAAA [XGTACX_negctrl_site116] | 9.83 ± 0.11
TCTTAAAAAATAGGGACACGTAAATATAATATATAA [CACACA_negctrl_site554] | 11 ± 0.65
AAAAAAAAAAAAAAAACACACATATATATATATATA [CACACA_site2436] | 10.4 ± 0.69
CACAGACACGGACACACACACACACCCACATATATA [CACACA_site4355] | 11.4 ± 1
ATATATTTTAAATATATTATTATTGCATTGTGAAAA [TGCATGCA_negctrl_site106] | 9.75 ± 0.21
TATATATATATATATAGTACATATTAATTAATTTAT [XGTACX_site8198] | 10.8 ± 0.63
AAAAAAAAAAAATAGACACACATATTATATATATAT [CACACA_site1419] | 9.88 ± 0.28
TATTATTCTATACATTGTACATATTTTATAGTATGT [XGTACX_site73] | 11.1 ± 0.52
TTCATATAACCTTATAGTACATAATTAAAAATATAA [XGTACX_site6328] | 10.9 ± 0.71
AAAAAAAAAAAAAAAACACACATATAGGTATAAATA [CACACA_site7528] | 10.2 ± 0.29

Sequence | gcPBM binding intensity (ln)
CACGCATATATACATACATGCATATATACATCCATG [TGCATGCA_site667] | 9.95 ± 0.085
TTTAAAACCTTACATACACACAAATATGTAAATATA [CACACA_site6464] | 9.92 ± 0.11
AAACTTGACAGACACACACACACATATATAAAAAAA [CACACA_site757] | 10.3 ± 0.48
GTTATATTATTCATACGTACCTATATTTCTATTAAC [XGTACX_site3447] | 10.9 ± 0.45
ATATCTATAATAAATACACACATTTATATAGATAAA [CACACA_site7518] | 9.95 ± 0.22
AACAGCATTATTTCTTATTTTTTTTTTGATATATTT [GTGCAC_negctrl_site114] | 9.79 ± 0.042
TGATAACCTCACAAATGTACGTACGGGGCTAGCATT [XGTACX_site4157] | 11.4 ± 0.78
ATGTGTTGGGAAAAGGCATGCACTTTTTTTTTTTTT [TGCATGCA_site707] | 10.2 ± 0.11
TTTTCCTTATATTATGCATGCAGGGTTTGACATTAT [TGCATGCA_site826] | 10.1 ± 0.18
CAAGGAACCAGACACACACACATAAATGTATTTATA [CACACA_site6491] | 10.1 ± 0.16
TTTTTTTTTTTCTTTTGTACGTATAAAATTATATAA [XGTACX_site2453] | 11.5 ± 0.66
TTAGGCAAGGCGGGGGGTACGTTTTTATATAATTAT [XGTACX_site8029] | 11.6 ± 0.87
TTAGATTTATAAGTGTGTACGTAAAATACTTAATAA [XGTACX_site8246] | 11.6 ± 1.1
AACTCATAAAATAATGGTACACAAAAAAAATAAATA [XGTACX_site7648] | 11.4 ± 0.81
TGTGTGTGCTTATTTTGTACATATTAGGTAAATATT [XGTACX_site6329] | 11.1 ± 0.63
TTTATGGAATAATCACGTACACACAAGAAAAAAAAA [XGTACX_site985] | 11.4 ± 0.91
TTTTTATCTAATCTAATATTATATTATACATATAAT [XGTACX_negctrl_site275] | 9.725 ± 0.035
AAAGGAAATAAAAACGCACACAGAAATAATATCTAT [CACACA_site457] | 10.07 ± 0.099
ATATTTCATTTTTGTACACACAACGTTGGAGGGTTT [CACACA_site3043] | 11.4 ± 0.77
TAAAAAATTACATATTGTACAGGCAAAATTACACAT [XGTACX_site1152] | 10.6 ± 0.4
ACTAAACGAATAAATTGTACAAAGAAATATATTCAT [XGTACX_site6766] | 10.9 ± 0.57
ACTACGTGGATTAGTTCAAGGGAACACGTCCTATAC [CACACA_negctrl_site1427] | 10.4 ± 0.15
CAACAAAAGTTATTTACACACAAAAGGCAAGGAAAT [CACACA_site7013] | 10.31 ± 0.064

Sequence | gcPBM binding intensity (ln)
AAAAAATATATATGCACACACAAAAAAACAAATTAA [CACACA_site1278] | 10.2 ± 0.16
AATATAAAAAATAGTTGTACTATATTTAAATATGAC [XGTACX_site2937] | 11.2 ± 0.85
AGTTTGCATATGGAAGTGCATTACCTTGAACATCAT | 10.055 ± 0.007
TCATATAAATACACGTGTACATATATATATTACAGT [XGTACX_site1954] | 11.5 ± 0.81
TATATGTTTTATAGTACACACATAAATGGACATACT [CACACA_site2191] | 11.4 ± 0.83
TGAATTTAGATATATACACACAAAAGTATATACAAT [CACACA_site2804] | 10.04 ± 0.035
TTTTTTTTATATAGTAGTACTAATTAGAATTTTTAT [XGTACX_site7476] | 11.2 ± 0.65
CCCACTAAAAAACACACACACACACCCATATATATA [CACACA_site6140] | 9.98 ± 0.18
ATATGTATTAAGTGTACACATATAATCTATCTTGTT [CACACA_site5329] | 11.5 ± 0.87
CTCAAATGTTATTGTAGTACCTAAAAAATATATTCT [XGTACX_site1970] | 11.2 ± 0.61
TACATACATACATACACACATACATATGTATATATA [CACACA_site2480] | 10.4 ± 0.17
TAATGCCATAATACGTGTACTTAATATATTAGAACA [XGTACX_site5809] | 11.4 ± 0.89
ACCATATAAATAAACACACACACACGGATATAAATA [CACACA_site7157] | 10.1 ± 0.18
GTTGGTAGGCGGTACGGTACACGTAAAGTTTTTCTT [XGTACX_site7706] | 11.2 ± 0.45
ATAAATGACAAATTAACACACATATATTATATATAT [CACACA_site3899] | 9.95 ± 0.099
AGTGGTGTTAAATGTTGTACGATTTTGTGTTATTCG [XGTACX_site178] | 11.3 ± 0.87
TTTTTGTTATATAAAGTGCAGTGACAAGCAGTTTAA | 10.2 ± 0.27
ATTTAAGCATTATTTTGTACGAAAATAAAAAAATGA [XGTACX_site6958] | 10.8 ± 0.52
ATATAAAAAAATAAAACACACACATATATATTATAT [CACACA_site8909] | 9.94
TATAATGCTCTTCTTTGTACATATTATGATTATATT [XGTACX_site2332] | 10.7 ± 0.4

Reference: the supplement of paper PMC11417369
